Molecular target: IL-21 receptor and IL-2Rγ expressed on the surface of transfected cells (human)
Assay: competition with 250 pM 125I-IL-21 for binding to BHK cells transfected with IL-21 receptor and IL-2Rγ, 2 h at 4 C

IC50: 10 nM
B1: zalpha11 Ligand I156ST/Q153D (ligand)
chain: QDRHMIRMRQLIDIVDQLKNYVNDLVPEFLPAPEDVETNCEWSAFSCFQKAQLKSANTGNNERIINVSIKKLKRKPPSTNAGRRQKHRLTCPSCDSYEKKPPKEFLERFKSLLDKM
notes: Tested as insect cell culture medium; also called Q145D/I148Stop

Source: patent US20030134390A1 (ZymoGenetics, published 2003)
